Results reported in PubChem BioAssay AID504706 (National Center for Advancing Translational Sciences (NCATS), 2011).
Hit rate of the full screen: of about 320,000 compounds, about 200 (0.062%) were called active. Inconclusive results, whose numbers are uncertain, are shown with a selection of clear calls. The call rests on the fitted dose curve; in most records, active means well fitted activation curve with a large enough effect; inconclusive means small, poorly fitted or top-dose-only effect; inactive means no such curve, though single readings can be large or run the other way. No potency is given beside an inconclusive call; the fits are too rough.

Assay: qHTS assay for re-activators of p53 using a Luc reporter; further: nearly all actives have a fitted effect of over 45% in size; on activity change, positive = activation: % of control where 0% means no effect
Conditions: H1299 p53-A138V BP100-luciferase reporter, luminescence, 24 h; series mostly up to 92.2 µM; activity change, positive = activation: at the top concentration
Outline: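 H1299 (p53-null), stable ts p53-A138V + BP100-Luc; 1000 cells/well, Opti-MEM/10% FBS; cpd 4 pt, 1:5; 24 h, 37 deg C, 5% CO2; detection reagent 10 min RT; luminescence.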
Potency means the concentration at half of the fitted maximal effect; tags describe the fitted curve by direction and shape.

| SMILES | activity change, positive = activation | Potency |
| --- | --- | --- |
| CCN(CC)CCNC(=O)c1ccc2c(=O)n(C3CCCC3)c(=S)[nH]c2c1 | inactive: 18.1% | – |
| Cc1c(CN(C)C)c2c(n1Cc1ccccc1)C(=O)c1ccccc1-2 | inactive: -3.84% | – |
| C/C(=N\NC(=S)NC1CCCCC1)c1cccc(C(F)(F)F)c1 | inactive: 0.417% | – |
| CC(OC(=O)C1CC(=O)N(Cc2ccco2)C1)C(=O)Nc1ccccc1[N+](=O)[O-] (stereo not drawn) | – | inconclusive [activator, single point] |
| COc1ccccc1/C=N/NC(=O)Cn1cnc([N+](=O)[O-])n1 | inactive: 1% | – |
| COc1ccccc1Nc1ncnc2c1c(C)c(C)n2CCCN(C)C | inactive: -3.29% | – |
| Cc1ccc(C(=O)O)cc1NC(=O)Nc1cccc2ccccc12 | – | inconclusive [activator, single point] |
| COc1ccc(CNC(=O)C(C)n2ccc3cc(S(=O)(=O)N4CCCCCC4)ccc32)cc1 (stereo not drawn) | inactive: -16% | – |
| COc1ccc2nc(-n3c(C)ccc3C)sc2c1 | – | inconclusive [activator, partial curve, poor fit] |
| CCc1cccc2c1NC(=O)C21N2CCCC2C(C(=O)c2ccc3ccccc3c2)C12C(=O)Nc1ccccc12 (stereo not drawn) | – | inconclusive [activator, full curve] |
| Cc1ccc(S(=O)(=O)N2CCC(C(=O)Nc3ncccc3O)CC2)cc1 | – | inconclusive [activator, partial curve, poor fit] |
| CC(C)C[C@H]1CN=C(N(C)C)N1CCc1cccc(F)c1 | inactive: -0.0768% | – |
| Cc1ccc(OCC(=O)NNC(=O)CSc2ncc(C#N)c(N)n2)cc1 | inactive: -1.04% | – |
| COc1cc(/C=N/Nc2ccc(C(=O)O)cc2)ccc1O | inactive: -0.852% | – |
| CCCCn1c(/C=C/c2ccco2)nc2ccccc21 | – | inconclusive [activator, partial curve, poor fit] |
| CCCc1[nH]nc2c1C(C1CCCCC1)C(C#N)=C(N)O2 (stereo not drawn) | – | inconclusive [activator, partial curve, poor fit] |
| O=C(NC1CCCCC1)N(C1=NCCCCC1)c1ccc(Br)cc1 | – | inconclusive [activator, partial curve, poor fit] |
| COc1ccc(O)c(-c2cc(-c3cccc(Br)c3)n[nH]2)c1 | – | inconclusive [activator, full curve, poor fit] |
| Cc1ccc(NC(=S)N2CCCCCC2)cc1 | inactive: 12.5% | – |
| COc1ccc2oc(=N)c(C(=O)Nc3ccccc3)cc2c1 | – | inconclusive [activator, partial curve, poor fit] |
| COc1ccc(-c2csc(NC(=S)NC(=O)c3cccs3)n2)cc1Br | inactive: -0.373% | – |
| CCc1noc(C)c1C(=O)NCCc1ccc(F)cc1 | inactive: -1.44% | – |
| Cn1nnnc1N=N/C(=N/Nc1ccccc1)c1ccccc1 | – | inconclusive [activator, partial curve, poor fit] |
| COc1ccc(C)cc1NC(=O)n1ncc2c(C)cccc21 | inactive: -3.15% | – |
| CN(C)c1ccc(N=Nc2ccccc2Br)cc1 | – | inconclusive [activator, full curve, poor fit] |

| SMILES | activity change, positive = activation | Potency |
| --- | --- | --- |
| CC(O)CN1CCN(C(=O)CN2C(=O)NC(c3ccccc3)(c3ccccc3)C2=O)CC1 (stereo not drawn) | – | inconclusive [activator, partial curve, poor fit] |
| Cn1c(SCC(=O)NC2CC2)nnc1-c1cccs1 | – | active: 35.5 µM |
| Cc1onc(-c2ccccc2)c1C(=O)Oc1cccnc1 | – | inconclusive [activator, single point] |
| COc1cccc2sc(Nc3nnc(-c4cccs4)o3)nc12 | – | inconclusive [activator, partial curve, poor fit] |
| Cc1cc(/C=N/n2cnnc2)c(C)n1-c1ccc(OCc2ccc(Cl)cc2Cl)cc1 | inactive: -13.4% | – |
| COc1ccc(-n2nc(C(=O)N(C)C)nc2-c2ccccc2)cc1 | inactive: -10.8% | – |
| c1ccc(-c2csc(NC3CCCCC3)n2)cc1 | – | inconclusive [activator, full curve, poor fit] |
| Cc1cc(NC(=O)c2ccc3nc(C)sc3c2)no1 | – | inconclusive [activator, partial curve, poor fit] |
| CCOC(=O)C1(Cc2ccccc2)CCN(Cc2cccn2-c2nccs2)CC1 | inactive: 0.0206% | – |
| CC(C)CNS(=O)(=O)c1ccc(C(=O)Nc2ccc3c(c2)OCCO3)cc1 | – | inconclusive [activator, single point] |
| COc1ccc(NC(=O)N2CCc3ccccc32)cc1 | – | inconclusive [activator, partial curve, poor fit] |
| Cc1cccc(-n2ccnc2SCC(=O)Nc2nccs2)c1C | inactive: 21.7% | – |
| Clc1cccc(OCc2nnc(-c3ccccc3Br)o2)c1 | inactive: 24.9% | – |
| N/C(=N\OC(=O)c1cccc(Br)c1)c1ccccn1 | inactive: -19.3% | – |
| CCSc1nnc(NC(=O)C2CCN(S(=O)(=O)c3ccccc3C(F)(F)F)CC2)s1 | inactive: -0.625% | – |
| O=C(OCc1ccccc1)C1CCCN1C(=O)c1cccs1 (stereo not drawn) | – | inconclusive [activator, single point] |
| COc1ccc(C(C(=O)NC(C)(C)C)N(CCc2ccccc2)C(=O)CCC(=O)Nc2cc(C)on2)cc1 (stereo not drawn) | inactive: 6.33% | – |
| O=C(Nc1cccc(N=Cc2cc(Br)cc(Br)c2O)c1)c1ccco1 | – | inconclusive [activator, single point] |
| CCOC(=O)c1c(COC(=O)c2ccco2)nc2ccccc2[n+]1[O-] | – | inconclusive [activator, full curve, poor fit] |
| CC1CN(C(=S)NC(=O)c2ccc(Cl)cc2)CC(C)O1 (stereo not drawn) | inactive: -4.13% | – |
| O=C(COc1ccccc1F)N/N=C1\CCCc2ccccc21 | – | inconclusive [activator, partial curve, poor fit] |
| O=C(N/N=C/c1ccncc1)c1sc2ccccc2c1Cl | inactive: -1.26% | – |
| Cc1nn(-c2ccccc2)c(N2CCCC2)c1/C=N/NC(=S)Nc1ccccc1F | – | inconclusive [activator, full curve, poor fit] |
| C/C(CC(=O)Nc1ccc(Cl)c(C(F)(F)F)c1)=N\NC(=O)c1ccccc1O | – | inconclusive [activator, partial curve, poor fit] |
| COc1ccccc1OCC(O)Cn1nc(C)cc1C (stereo not drawn) | – | inconclusive [activator, partial curve, poor fit] |

| SMILES | activity change, positive = activation | Potency |
| --- | --- | --- |
| NC(N)=Nc1ccc(N=C(N)N)cc1 | inactive: 1.28% | – |
| COc1cccc(/C=N/NC(=O)CSCC(=O)Nc2ccccc2)c1O | – | inconclusive [activator, partial curve, poor fit] |
| CCc1nnc(NC(=O)CSc2nccn2-c2ccccc2)s1 | inactive: -2.76% | – |
| CCOC(=O)CNC(=O)c1sc(NC(=O)c2ccccc2)nc1C | – | inconclusive [activator, partial curve, poor fit] |
| COc1ccc(-n2c(COc3ccccc3)nnc2SCc2ccc(C#N)cc2)cc1 | – | inconclusive [activator, single point] |
| COc1cc(/C=C2\C(=N)N3N=CSC3=NC2=O)ccc1OS(=O)(=O)c1ccccc1[N+](=O)[O-] | – | inconclusive [activator, partial curve, poor fit] |
| O=C(CNC(=O)c1ccco1)Nc1ccc(Br)cc1 | – | inconclusive [activator, full curve, poor fit] |
| CC(C)c1ccc(C(=O)CSc2ncn[nH]2)cc1 | – | inconclusive [activator, full curve, poor fit] |
| CC(=O)Nc1cccc(NC(=O)Nc2ccc(F)cc2F)c1 | inactive: 15.4% | – |
| Cc1cc2ncn(/N=C/c3ccc([N+](=O)[O-])s3)c2cc1C | – | inconclusive [activator, full curve, poor fit] |
| Cc1ccc(C)c(Cn2c(CN(C)Cc3ccccc3)nc3c2c(=O)n(C)c(=O)n3C)c1 | inactive: 0.416% | – |
| O=C(Nc1nc2ccccc2[nH]1)c1cc2ccccc2o1 | inactive: 24.8% | – |
| Cc1ccc(CONC(=O)c2ccc(Cl)cc2)cc1 | – | inconclusive [activator, partial curve, poor fit] |
| CCN(CC)C(=O)c1cc2c(=O)oc3ccccc3c2s1 | – | inconclusive [activator, single point] |
| CC1CCN(C(=O)COC(=O)c2ccc3c(c2)OCCO3)CC1 | – | inconclusive [activator, partial curve] |
| O=C(Nc1ccc(Br)cc1F)c1ccc2nsnc2c1 | – | inconclusive [activator, partial curve, poor fit] |
| CC1(C)CC(=O)C(N=Nc2ccc(Cl)cc2)=C(O)C1 | – | inconclusive [activator, partial curve, poor fit] |
| c1ccc(-n2ncc3c(NC4CCCCCC4)ncnc32)cc1 | – | inconclusive [activator, partial curve, poor fit] |
| COc1ccc(OCCN2C(=O)c3ccccc3C2=O)cc1 | – | inconclusive [activator, partial curve, poor fit] |
| Cc1cc(C)cc(N(CC(=O)Nc2ccc(-c3nc4ccc(C)cc4s3)cc2)S(C)(=O)=O)c1 | – | inconclusive [activator, full curve, poor fit] |
| COCCn1c(SCC(=O)NCc2ccc3c(c2)OCO3)nnc1-c1c[nH]c2ccccc12 | inactive: 2.52% | – |
| COc1ccc(-c2nc3ccccc3c(=O)o2)cc1OC | – | inconclusive [activator, single point] |
| CC(Nc1ccc(Br)cc1)C(=O)N/N=C/c1ccccc1OCc1ccccc1 (stereo not drawn) | – | inconclusive [activator, partial curve, poor fit] |
